This is one part of the list.
How the values were obtained:
Assay in all cases: glycan array binding signal (z-score within array); higher = stronger binding
Details in all cases: glycan notation: IUPAC condensed, linker removed
GlcNAc(b1-3)Gal(b1-4)Glc = target: GlcNAc(b1-3)Gal(b1-4)Glc
Outline: (§1)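 Glycan array data came from 3228 arrays in the Consortium for Functional Glycomics database, and only arrays with an available protein sequence were kept. Glycan names were put into IUPAC-condensed notation, and columns mapping to the same glycan were averaged. The binding signal is a within-array Z-score, averaged across arrays of one protein sequence run at different concentrations or buffers and across linkers. A negative Z-score can be read as non-binding.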

[1] = target: GlcNAc(b1-3)Gal(b1-4)GlcNAc
Outline: as §1

[2] = target: GlcNAc(b1-3)Gal(b1-4)GlcNAc(b1-2)Man(a1-3)[GlcNAc(b1-3)Gal(b1-4)GlcNAc(b1-2)Man(a1-6)]Man(b1-4)GlcNAc(b1-4)GlcNAc
Outline: as §1

[3] = target: GlcNAc(b1-3)Gal(b1-4)GlcNAc(b1-2)Man(a1-3)[GlcNAc(b1-3)Gal(b1-4)GlcNAc(b1-2)Man(a1-6)]Man(b1-4)GlcNAc(b1-4)[Fuc(a1-6)]GlcNAc
Outline: as §1

[4] = target: GlcNAc(b1-3)Gal(b1-4)GlcNAc(b1-2)[GlcNAc(b1-3)Gal(b1-4)GlcNAc(b1-6)]Man(a1-6)[GlcNAc(b1-3)Gal(b1-4)GlcNAc(b1-2)Man(a1-3)]Man(b1-4)GlcNAc(b1-4)GlcNAc
Outline: as §1

[5] = target: GlcNAc(b1-3)Gal(b1-4)GlcNAc(b1-3)Gal(b1-4)GlcNAc
Outline: as §1

[6] = target: GlcNAc(b1-3)Gal(b1-4)GlcNAc(b1-3)Gal(b1-4)GlcNAc(b1-2)Man(a1-3)[GlcNAc(b1-3)Gal(b1-4)GlcNAc(b1-3)Gal(b1-4)GlcNAc(b1-2)Man(a1-6)]Man(b1-4)GlcNAc(b1-4)GlcNAc
Outline: as §1

[7] = target: GlcNAc(b1-3)Gal(b1-4)GlcNAc(b1-3)Gal(b1-4)GlcNAc(b1-2)Man(a1-3)[GlcNAc(b1-3)Gal(b1-4)GlcNAc(b1-3)Gal(b1-4)GlcNAc(b1-2)Man(a1-6)]Man(b1-4)GlcNAc(b1-4)[Fuc(a1-6)]GlcNAc
Outline: as §1

[8] = target: GlcNAc(b1-3)Gal(b1-4)GlcNAc(b1-3)Gal(b1-4)GlcNAc(b1-2)[GlcNAc(b1-3)Gal(b1-4)GlcNAc(b1-3)Gal(b1-4)GlcNAc(b1-6)]Man(a1-6)[GlcNAc(b1-3)Gal(b1-4)GlcNAc(b1-3)Gal(b1-4)GlcNAc(b1-2)Man(a1-3)]Man(b1-4)GlcNAc(b1-4)[Fuc(a1-6)]GlcNAc
Outline: as §1

[9] = target: GlcNAc(b1-3)Gal(b1-4)GlcNAc(b1-3)Gal(b1-4)GlcNAc(b1-3)Gal(b1-4)GlcNAc(b1-2)Man(a1-3)[GlcNAc(b1-3)Gal(b1-4)GlcNAc(b1-3)Gal(b1-4)GlcNAc(b1-3)Gal(b1-4)GlcNAc(b1-2)Man(a1-6)]Man(b1-4)GlcNAc(b1-4)GlcNAc
Outline: as §1

[10] = target: GlcNAc(b1-3)Gal(b1-4)GlcNAc(b1-3)Gal(b1-4)GlcNAc(b1-3)Gal(b1-4)GlcNAc(b1-2)Man(a1-3)[GlcNAc(b1-3)Gal(b1-4)GlcNAc(b1-3)Gal(b1-4)GlcNAc(b1-3)Gal(b1-4)GlcNAc(b1-2)Man(a1-6)]Man(b1-4)GlcNAc(b1-4)[Fuc(a1-6)]GlcNAc
Outline: as §1

[11] = target: GlcNAc(b1-3)Gal(b1-4)GlcNAc(b1-3)Gal(b1-4)GlcNAc(b1-3)Gal(b1-4)GlcNAc(b1-2)[GlcNAc(b1-3)Gal(b1-4)GlcNAc(b1-3)Gal(b1-4)GlcNAc(b1-3)Gal(b1-4)GlcNAc(b1-6)]Man(a1-6)[GlcNAc(b1-3)Gal(b1-4)GlcNAc(b1-3)Gal(b1-4)GlcNAc(b1-3)Gal(b1-4)GlcNAc(b1-2)Man(a1-3)]Man(b1-4)GlcNAc(b1-4)[Fuc(a1-6)]GlcNAc
Outline: as §1

[12] = target: GlcNAc(b1-3)Gal(b1-4)GlcNAc(b1-3)Gal(b1-4)GlcNAc(b1-3)Gal(b1-4)GlcNAc(b1-3)Gal(b1-4)GlcNAc(b1-2)Man(a1-3)[GlcNAc(b1-3)Gal(b1-4)GlcNAc(b1-3)Gal(b1-4)GlcNAc(b1-3)Gal(b1-4)GlcNAc(b1-3)Gal(b1-4)GlcNAc(b1-2)Man(a1-6)]Man(b1-4)GlcNAc(b1-4)GlcNAc
Outline: as §1

[13] = target: GlcNAc(b1-3)Gal(b1-4)GlcNAc(b1-3)Gal(b1-4)GlcNAc(b1-3)Gal(b1-4)GlcNAc(b1-3)Gal(b1-4)GlcNAc(b1-2)Man(a1-3)[GlcNAc(b1-3)Gal(b1-4)GlcNAc(b1-3)Gal(b1-4)GlcNAc(b1-3)Gal(b1-4)GlcNAc(b1-3)Gal(b1-4)GlcNAc(b1-2)Man(a1-6)]Man(b1-4)GlcNAc(b1-4)[Fuc(a1-6)]GlcNAc
Outline: as §1

[14] = target: GlcNAc(b1-3)Gal(b1-4)GlcNAc(b1-3)Gal(b1-4)GlcNAc(b1-3)Gal(b1-4)GlcNAc(b1-3)Gal(b1-4)GlcNAc(b1-2)[GlcNAc(b1-3)Gal(b1-4)GlcNAc(b1-3)Gal(b1-4)GlcNAc(b1-3)Gal(b1-4)GlcNAc(b1-3)Gal(b1-4)GlcNAc(b1-6)]Man(a1-6)[GlcNAc(b1-3)Gal(b1-4)GlcNAc(b1-3)Gal(b1-4)GlcNAc(b1-3)Gal(b1-4)GlcNAc(b1-3)Gal(b1-4)GlcNAc(b1-2)Man(a1-3)]Man(b1-4)GlcNAc(b1-4)[Fuc(a1-6)]GlcNAc
Outline: as §1

[15] = target: GlcNAc(b1-3)Gal(b1-4)GlcNAc(b1-3)Gal(b1-4)GlcNAc(b1-3)GalNAc
Outline: as §1

[16] = target: GlcNAc(b1-3)Gal(b1-4)GlcNAc(b1-3)GalNAc
Outline: as §1

[17] = target: GlcNAc(b1-3)Gal(b1-4)GlcNAc(b1-3)[GlcNAc(b1-3)Gal(b1-4)GlcNAc(b1-3)]GalNAc
Outline: as §1

[18] = target: GlcNAc(b1-3)Gal(b1-4)GlcNAc(b1-6)[Gal(b1-3)]GalNAc
Outline: as §1

[19] = target: GlcNAc(b1-3)Gal(b1-4)GlcNAc(b1-6)[GlcNAc(b1-3)Gal(b1-3)]GalNAc
Outline: as §1

[20] = target: GlcNAc(b1-3)Gal(b1-4)GlcNAc(b1-6)[GlcNAc(b1-3)]Gal(b1-4)GlcNAc
Outline: as §1

GlcNAc(b1-3)GalNAc = target: GlcNAc(b1-3)GalNAc
Outline: as §1

GlcNAc(b1-3)Man = target: GlcNAc(b1-3)Man
Outline: as §1

[21] = target: GlcNAc(b1-3)[GlcNAc(b1-4)][GlcNAc(b1-6)]GlcNAc
Outline: as §1

[22] = target: GlcNAc(b1-3)[GlcNAc(b1-6)]Gal(b1-4)GlcNAc
Outline: as §1

[23] = target: GlcNAc(b1-3)[GlcNAc(b1-6)]GalNAc
Outline: as §1

[24] = target: GlcNAc(b1-4)Gal(b1-4)GlcNAc
Outline: as §1

GlcNAc(b1-4)GlcNAc = target: GlcNAc(b1-4)GlcNAc
Outline: as §1

[25] = target: GlcNAc(b1-4)GlcNAc(b1-4)GlcNAc
Outline: as §1

[26] = target: GlcNAc(b1-4)GlcNAc(b1-4)GlcNAc(b1-4)GlcNAc(b1-4)GlcNAc
Outline: as §1

[27] = target: GlcNAc(b1-4)GlcNAc(b1-4)GlcNAc(b1-4)GlcNAc(b1-4)GlcNAc(b1-4)GlcNAc
Outline: as §1

[28] = target: GlcNAc(b1-4)[GlcNAc(b1-6)]GalNAc
Outline: as §1

[29] = target: GlcNAc(b1-6)Gal(b1-4)GlcNAc
Outline: as §1

GlcNAc(b1-6)GalNAc = target: GlcNAc(b1-6)GalNAc
Outline: as §1

[30] = target: GlcNAc6S(b1-3)Gal(b1-4)GlcNAc
Outline: as §1

Kdn(a2-3)Gal(b1-3)GalNAc = target: Kdn(a2-3)Gal(b1-3)GalNAc
Outline: as §1

Kdn(a2-3)Gal(b1-3)GlcNAc = target: Kdn(a2-3)Gal(b1-3)GlcNAc
Outline: as §1

B1: Cohesin-hDECTIN-1 (Homo sapiens) (protein)
chain: LDITSHHHHHHDDLDAVRIKVDTVNAKPGDTVRIPVRFSGIPSKGIANCDFVYSYDPNVLEIIEIEPGDIIVDPNPDKSFDTAVYPDRKIIVFLFAEDSGTGAYAITKDGVFATIVAKVKEGAPNGLSVIKFVEVGGFANNDLVEQKTQFFDGGVNVGDTTEPATPTTPVTTPTTTDDLDAASSSPCPPNWIIYEKSCYLFSMSLNSWDGSKRQCWQLGSNLLKIDSSNELGFIVKQVSSQPDNSFWIGLSRPQTEVPWLWEDGSTFSSNLFQIRTTATQENPSPNCVWIHVSVIYDQLCSVPSYSICEKKFM
GlcNAc(b1-3)Gal(b1-4)Glc
  glycan array binding signal (z-score): -0.428
[1]
  glycan array binding signal (z-score): -0.441
[2]
  glycan array binding signal (z-score): -0.421
[3]
  glycan array binding signal (z-score): -0.212
[4]
  glycan array binding signal (z-score): -0.124
[5]
  glycan array binding signal (z-score): -0.185
[6]
  glycan array binding signal (z-score): 0.351
[7]
  glycan array binding signal (z-score): -0.282
[8]
  glycan array binding signal (z-score): -0.434
[9]
  glycan array binding signal (z-score): -0.567
[10]
  glycan array binding signal (z-score): -0.138
[11]
  glycan array binding signal (z-score): -0.474
[12]
  glycan array binding signal (z-score): 0.599
[13]
  glycan array binding signal (z-score): 0.226
[14]
  glycan array binding signal (z-score): -0.496
[15]
  glycan array binding signal (z-score): -0.574
[16]
  glycan array binding signal (z-score): -0.397
[17]
  glycan array binding signal (z-score): -0.531
[18]
  glycan array binding signal (z-score): -0.318
[19]
  glycan array binding signal (z-score): -0.198
[20]
  glycan array binding signal (z-score): -0.293
GlcNAc(b1-3)GalNAc
  glycan array binding signal (z-score): -0.493
GlcNAc(b1-3)Man
  glycan array binding signal (z-score): -0.449
[21]
  glycan array binding signal (z-score): 0.047
[22]
  glycan array binding signal (z-score): -0.577
[23]
  glycan array binding signal (z-score): -0.295
[24]
  glycan array binding signal (z-score): -0.292
GlcNAc(b1-4)GlcNAc
  glycan array binding signal (z-score): -0.401
[25]
  glycan array binding signal (z-score): -0.385
[26]
  glycan array binding signal (z-score): -0.489
[27]
  glycan array binding signal (z-score): -0.328
[28]
  glycan array binding signal (z-score): -0.366
[29]
  glycan array binding signal (z-score): -0.367
GlcNAc(b1-6)GalNAc
  glycan array binding signal (z-score): 3.07
[30]
  glycan array binding signal (z-score): -0.342
Kdn(a2-3)Gal(b1-3)GalNAc
  glycan array binding signal (z-score): -0.372
Kdn(a2-3)Gal(b1-3)GlcNAc
  glycan array binding signal (z-score): -0.537

— the supplement of paper PMC8728848
